T1: TLT-1 18-188 relipidated in 20:80 PS:PC vesicles (human, UniProt Q86YW5 18-188)
T1 sequence: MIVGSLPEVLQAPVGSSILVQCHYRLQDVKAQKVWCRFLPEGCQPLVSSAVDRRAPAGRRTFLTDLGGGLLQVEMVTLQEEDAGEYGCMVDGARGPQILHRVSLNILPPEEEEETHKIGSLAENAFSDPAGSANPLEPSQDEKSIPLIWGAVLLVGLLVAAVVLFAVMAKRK

T2: TLT-1 receptor on the surface of activated human platelets (human, UniProt Q86YW5 16-311)
T2 sequence: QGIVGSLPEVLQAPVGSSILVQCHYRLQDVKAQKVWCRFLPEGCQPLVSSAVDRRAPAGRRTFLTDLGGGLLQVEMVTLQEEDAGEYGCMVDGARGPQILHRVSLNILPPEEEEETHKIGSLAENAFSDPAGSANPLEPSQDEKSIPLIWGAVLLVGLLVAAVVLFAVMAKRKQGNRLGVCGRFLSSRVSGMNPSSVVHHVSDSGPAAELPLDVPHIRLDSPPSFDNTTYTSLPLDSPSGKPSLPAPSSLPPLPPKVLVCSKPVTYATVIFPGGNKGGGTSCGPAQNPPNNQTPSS


Columns and labels:
[1] = molecular target: T1, TLT-1 18-188 relipidated in 20:80 PS:PC …; assay: cell-based or functional assay
[2] = molecular target: T2, TLT-1 receptor on the surface of …; assay: cell-based or functional assay

Binder	FVII-mediated FXa generation % Activity lipidated TLT-1 [1]	FVIIa-mediated FXa generation % Activity lipidated TLT-1 [1]	FVII-mediated FXa generation % Activity activated plts (n 2) [2]	FVIIa-mediated FXa generation % Activity activated plts (n 2) [2]
mAb 0012-(LC-L9-TF)2;HC2 (other) light chain-linker-TF: DVVMTQTPLSLPVSLGDQASISCRSSQSLVHRNGNTYFHWCLQKPGQSPKLLIYKVSNRFSGVPDRFSGSGSGTDFTLKISRVEAEDLGVYFCSQSTHVPYTFGGGTKLEIKRTVAAPSVFIFPPSDEQLKSGTASVVCLLNNFYPREAKVQWKVDNALQSGNSQESVTEQDSKDSTYSLSSTLTLSKADYEKHKVYACEVTHQGLSSPVTKSFNRGECGGGGSGGGGSGGGGSGGGGSGGGGSGSGGGGSGGGGSGGGGSSGTTNTVAAYNLTWKSTNFKTILEWEPKPVNQVYTVQISTKSGDWKSKCFYTTDTECDLTDEIVKDVKQTYLARVFSYPAGNVESTGSAGEPLYENSPEFTPYLETNLGQPTIQSFEQVGTKVNVTVEDERTLVRRNNTFLSLRDVFGKDLIYTLYYWKSSSSGKKTAKTNTNEFLIDVDKGENYCFSVQAVIPSRTVNRKSTDSPVECMGQEKGEFRE heavy chain: EVKLLESGGGLVQPGGSLKLSCAASGFDFSRYWMTWVRQAPGKGLEWIGEINPDSSTINYTPSLKDKFIISRDNAKNTLYLQMSEVRSEDTALYYCASGVFTSWGQGTLVTVSAASTKGPSVFPLAPCSRSTSESTAALGCLVKDYFPEPVTVSWNSGALTSGVHTFPAVLQSSGLYSLSSVVTVPSSSLGTKTYTCNVDHKPSNTKVDKRV[human IgG4 Fc with S228P (EU numbers) omitted]	64%	84%	44%	24%
mAb 0012-(LC-L5-TF)2;HC2 (other) light chain-linker-TF: DVVMTQTPLSLPVSLGDQASISCRSSQSLVHRNGNTYFHWCLQKPGQSPKLLIYKVSNRFSGVPDRFSGSGSGTDFTLKISRVEAEDLGVYFCSQSTHVPYTFGGGTKLEIKRTVAAPSVFIFPPSDEQLKSGTASVVCLLNNFYPREAKVQWKVDNALQSGNSQESVTEQDSKDSTYSLSSTLTLSKADYEKHKVYACEVTHQGLSSPVTKSFNRGECGGGGSGSGGGGSGGGGSGGGGSSGTTNTVAAYNLTWKSTNFKTILEWEPKPVNQVYTVQISTKSGDWKSKCFYTTDTECDLTDEIVKDVKQTYLARVFSYPAGNVESTGSAGEPLYENSPEFTPYLETNLGQPTIQSFEQVGTKVNVTVEDERTLVRRNNTFLSLRDVFGKDLIYTLYYWKSSSSGKKTAKTNTNEFLIDVDKGENYCFSVQAVIPSRTVNRKSTDSPVECMGQEKGEFRE heavy chain: EVKLLESGGGLVQPGGSLKLSCAASGFDFSRYWMTWVRQAPGKGLEWIGEINPDSSTINYTPSLKDKFIISRDNAKNTLYLQMSEVRSEDTALYYCASGVFTSWGQGTLVTVSAASTKGPSVFPLAPCSRSTSESTAALGCLVKDYFPEPVTVSWNSGALTSGVHTFPAVLQSSGLYSLSSVVTVPSSSLGTKTYTCNVDHKPSNTKVDKRV[human IgG4 Fc with S228P (EU numbers) omitted]	68%	87%	46%	24%
mAb 0012-(LC-L7-TF)2;HC2 (other) light chain-linker-TF: DVVMTQTPLSLPVSLGDQASISCRSSQSLVHRNGNTYFHWCLQKPGQSPKLLIYKVSNRFSGVPDRFSGSGSGTDFTLKISRVEAEDLGVYFCSQSTHVPYTFGGGTKLEIKRTVAAPSVFIFPPSDEQLKSGTASVVCLLNNFYPREAKVQWKVDNALQSGNSQESVTEQDSKDSTYSLSSTLTLSKADYEKHKVYACEVTHQGLSSPVTKSFNRGECGGGGSGGGGSGGGGSGSGGGGSGGGGSGGGGSSGTTNTVAAYNLTWKSTNFKTILEWEPKPVNQVYTVQISTKSGDWKSKCFYTTDTECDLTDEIVKDVKQTYLARVFSYPAGNVESTGSAGEPLYENSPEFTPYLETNLGQPTIQSFEQVGTKVNVTVEDERTLVRRNNTFLSLRDVFGKDLIYTLYYWKSSSSGKKTAKTNTNEFLIDVDKGENYCFSVQAVIPSRTVNRKSTDSPVECMGQEKGEFRE heavy chain: EVKLLESGGGLVQPGGSLKLSCAASGFDFSRYWMTWVRQAPGKGLEWIGEINPDSSTINYTPSLKDKFIISRDNAKNTLYLQMSEVRSEDTALYYCASGVFTSWGQGTLVTVSAASTKGPSVFPLAPCSRSTSESTAALGCLVKDYFPEPVTVSWNSGALTSGVHTFPAVLQSSGLYSLSSVVTVPSSSLGTKTYTCNVDHKPSNTKVDKRV[human IgG4 Fc with S228P (EU numbers) omitted]	68%	86%	47%	24%

Other lines, results leading:

FVII-mediated FXa generation % Activity lipidated TLT-1 [1]	FVIIa-mediated FXa generation % Activity lipidated TLT-1 [1]	FVII-mediated FXa generation % Activity activated plts (n 2) [2]	FVIIa-mediated FXa generation % Activity activated plts (n 2) [2]	Binder
59%	86%	40%	23%	mAb 0012-(LC-L3-TF)2;HC2 (other) light chain-linker-TF: DVVMTQTPLSLPVSLGDQASISCRSSQSLVHRNGNTYFHWCLQKPGQSPKLLIYKVSNRFSGVPDRFSGSGSGTDFTLKISRVEAEDLGVYFCSQSTHVPYTFGGGTKLEIKRTVAAPSVFIFPPSDEQLKSGTASVVCLLNNFYPREAKVQWKVDNALQSGNSQESVTEQDSKDSTYSLSSTLTLSKADYEKHKVYACEVTHQGLSSPVTKSFNRGECGSGGGGSGGGGSSGTTNTVAAYNLTWKSTNFKTILEWEPKPVNQVYTVQISTKSGDWKSKCFYTTDTECDLTDEIVKDVKQTYLARVFSYPAGNVESTGSAGEPLYENSPEFTPYLETNLGQPTIQSFEQVGTKVNVTVEDERTLVRRNNTFLSLRDVFGKDLIYTLYYWKSSSSGKKTAKTNTNEFLIDVDKGENYCFSVQAVIPSRTVNRKSTDSPVECMGQEKGEFRE heavy chain: EVKLLESGGGLVQPGGSLKLSCAASGFDFSRYWMTWVRQAPGKGLEWIGEINPDSSTINYTPSLKDKFIISRDNAKNTLYLQMSEVRSEDTALYYCASGVFTSWGQGTLVTVSAASTKGPSVFPLAPCSRSTSESTAALGCLVKDYFPEPVTVSWNSGALTSGVHTFPAVLQSSGLYSLSSVVTVPSSSLGTKTYTCNVDHKPSNTKVDKRV[human IgG4 Fc with S228P (EU numbers) omitted]
70%	88%	45%	25%	mAb 0012-(LC-L8-TF)2;HC2 (other) light chain-linker-TF: DVVMTQTPLSLPVSLGDQASISCRSSQSLVHRNGNTYFHWCLQKPGQSPKLLIYKVSNRFSGVPDRFSGSGSGTDFTLKISRVEAEDLGVYFCSQSTHVPYTFGGGTKLEIKRTVAAPSVFIFPPSDEQLKSGTASVVCLLNNFYPREAKVQWKVDNALQSGNSQESVTEQDSKDSTYSLSSTLTLSKADYEKHKVYACEVTHQGLSSPVTKSFNRGECGGGGSGGGGSGGGGSGGGGSGSGGGGSGGGGSGGGGSSGTTNTVAAYNLTWKSTNFKTILEWEPKPVNQVYTVQISTKSGDWKSKCFYTTDTECDLTDEIVKDVKQTYLARVFSYPAGNVESTGSAGEPLYENSPEFTPYLETNLGQPTIQSFEQVGTKVNVTVEDERTLVRRNNTFLSLRDVFGKDLIYTLYYWKSSSSGKKTAKTNTNEFLIDVDKGENYCFSVQAVIPSRTVNRKSTDSPVECMGQEKGEFRE heavy chain: EVKLLESGGGLVQPGGSLKLSCAASGFDFSRYWMTWVRQAPGKGLEWIGEINPDSSTINYTPSLKDKFIISRDNAKNTLYLQMSEVRSEDTALYYCASGVFTSWGQGTLVTVSAASTKGPSVFPLAPCSRSTSESTAALGCLVKDYFPEPVTVSWNSGALTSGVHTFPAVLQSSGLYSLSSVVTVPSSSLGTKTYTCNVDHKPSNTKVDKRV[human IgG4 Fc with S228P (EU numbers) omitted]
67%	90%	47%	26%	mAb 0012-(LC-L6-TF)2;HC2 (other) light chain-linker-TF: DVVMTQTPLSLPVSLGDQASISCRSSQSLVHRNGNTYFHWCLQKPGQSPKLLIYKVSNRFSGVPDRFSGSGSGTDFTLKISRVEAEDLGVYFCSQSTHVPYTFGGGTKLEIKRTVAAPSVFIFPPSDEQLKSGTASVVCLLNNFYPREAKVQWKVDNALQSGNSQESVTEQDSKDSTYSLSSTLTLSKADYEKHKVYACEVTHQGLSSPVTKSFNRGECGGGGSGGGGSGSGGGGSGGGGSGGGGSSGTTNTVAAYNLTWKSTNFKTILEWEPKPVNQVYTVQISTKSGDWKSKCFYTTDTECDLTDEIVKDVKQTYLARVFSYPAGNVESTGSAGEPLYENSPEFTPYLETNLGQPTIQSFEQVGTKVNVTVEDERTLVRRNNTFLSLRDVFGKDLIYTLYYWKSSSSGKKTAKTNTNEFLIDVDKGENYCFSVQAVIPSRTVNRKSTDSPVECMGQEKGEFRE heavy chain: EVKLLESGGGLVQPGGSLKLSCAASGFDFSRYWMTWVRQAPGKGLEWIGEINPDSSTINYTPSLKDKFIISRDNAKNTLYLQMSEVRSEDTALYYCASGVFTSWGQGTLVTVSAASTKGPSVFPLAPCSRSTSESTAALGCLVKDYFPEPVTVSWNSGALTSGVHTFPAVLQSSGLYSLSSVVTVPSSSLGTKTYTCNVDHKPSNTKVDKRV[human IgG4 Fc with S228P (EU numbers) omitted]

— patent publication US20120178908A1 (Novo Nordisk, published 2012)
